# From PubChem BioAssay AID1345082 (National Center for Advancing Translational Sciences (NCATS), 2018)
# Values joined by “and” are separate entries in the source; they are usually repeats but may differ in a detail not shown here. Equal values may be shown once. Hit rate of the full screen: of about 94,000 compounds, about 4,000 (4.3%) were called active. The inconclusive results got no clear call from the source; some entries with a clear call stand among them for comparison. Calls follow the shape of the dose curve; as a rule, active = well fitted inhibition curve with a large enough effect; inconclusive = small, poorly fitted or top-dose-only effect; inactive = no such curve, though single readings can be large or run the other way. Where the call is inconclusive, the potency comes from a doubtful curve fit.
# Experiment: Cytotoxic Profiling in NIH 3T3 Cell Line of Diverse Libraries Using Quantitative High-Throughput Screening; also: nearly all actives have a fitted effect of over 55% in size
# Settings: NIH 3T3 viability, CellTiter-Glo ATP luminescence, 48-72 h; series mostly up to 96.7 µM
# Summary of the method: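 Viability of NIH 3T3 cells after 48 or 72 hr compound treatment at 37 °C was assessed by CellTiter-Glo, with luminescence imaged following a 10 min room-temperature step.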
# Potency is read from the fitted curve at half-maximal effect; tags tell the direction and shape of the fitted curve.
row,Compound,Potency
1,O=C(c1ccccc1)N1CCC(C(=O)N2CCC(N3CCOC3=O)CC2)CC1,inactive
2,Cc1ccc(NC(=O)c2ccc3c(c2)N(C)C2CCCN2C3=O)cc1 (configuration not stated),inactive
3,COc1ccc(NC(=O)c2ccc3c(c2)N(C)C2CCCCN2C3=O)cc1OC (configuration not stated),"inconclusive: 50.1 µM [inhibitor, partial curve, poor fit]"
4,COc1ccc(-c2cc(N3CCC(NC(=O)c4ccccc4Br)C3)n[nH]2)cc1 (configuration not stated),"inconclusive: 50.1 µM [inhibitor, single point]"
5,O=c1c2c(CO)c(-c3ccccc3)nn2ccn1CCc1ccccc1,"inconclusive: 70.8 µM [inhibitor, single point]"
6,O=c1[nH]c(N2CCOCC2)nc2c1CCN(Cc1cccc(F)c1)CC2,inactive
7,Cc1cc(C(=O)N2CCC(F)(c3nc(-c4ccncc4)no3)CC2)n(C)n1,inactive
8,COc1ccc(N2C(=O)CSC23CCN(C(=O)CC(C)C)CC3)cc1,"inconclusive: 70.8 µM [inhibitor, single point]"
9,O=C(NCc1cccnc1)C1CCCCN1Cc1ccc(-c2ccsc2)cc1 (configuration not stated),"inconclusive: 50.1 µM [inhibitor, partial curve, poor fit]"
10,CCOC(=O)C1=CN(CC(=O)Nc2ccc(C(C)=O)cc2)S(=O)(=O)N=C1C,"inconclusive: 44.7 µM [inhibitor, partial curve, poor fit]"
11,CC1=C[C@@H](CN2CCN(c3cnccn3)CC2)[C@H](C(C)C)C[C@H]1Cc1nnc(-c2ccc([N+](=O)[O-])cc2)o1,"inconclusive: 44.7 µM [inhibitor, partial curve, poor fit]"
12,O=c1c2nc(-c3cccc(C(F)(F)F)c3)ccc2ncn1Cc1ccccn1,"inconclusive: 112 µM [inhibitor, single point]"
13,O=C1NC2(CCN(Cc3ccc(C(F)(F)F)cc3)CC2)COc2ccccc21,inactive
14,COCCNC(=O)CCCN1C(=O)COc2ccc(C(=O)COc3ccc(C)cc3C)cc21,inactive
15,CCN(CC)c1cc(CCC(=O)NCc2ccc(Cl)cc2)ccn1,inactive
16,COc1ccc(NC(=O)O[C@@H]2CC[C@]3(C)C(CC[C@@H](O)[C@H]3CC(=O)NCc3ccccc3)[C@]2(C)CO)cc1 (some centres not stated),inactive
17,O=C1NC2(Cc3ccccc31)CN(C(=O)c1ccc3c(c1)OCO3)C2,inactive
18,CC(C)[C@H]1CN(CCS(C)(=O)=O)C[C@@H]1NC(=O)c1ccco1,inactive
19,COc1ccccc1-c1ccc(CN2CCC(NC(C)=O)C2)cc1 (configuration not stated),"inconclusive: 89.1 µM [inhibitor, partial curve, poor fit]"
20,Cc1ccc(CN2CCc3nc(C(=O)Nc4ccc(Cl)cc4)oc3CC2)cc1,"inconclusive: 79.4 µM [inhibitor, partial curve]"
21,CCc1nc2c(c(-c3ccc(OC)cc3)n1)CN(C(=O)c1ccc(C(F)(F)F)cc1)CC2,inactive
22,COc1ccc(C(=O)N2CCC3(C2)C(=O)N(CCc2ccccc2)c2ccccc23)cc1 (configuration not stated),"inconclusive: 44.7 µM [inhibitor, partial curve, poor fit]"
23,O=C(NC1CCN(c2ccnc3ccnn23)CC1)C1CCCC1,inactive

row,Compound,Potency
1,CC(C)c1noc(-c2cccn3c(CNC(=O)c4nccc5ccccc45)nnc23)n1,inactive
2,COc1ccc(-c2noc(CC3CCN(C(=O)COc4cccc(C)c4)CC3)n2)cc1,"inconclusive: 56.2 µM [inhibitor, partial curve, poor fit]"
3,CS(=O)(=O)Nc1ccc(C2(C(=O)NCc3cc(F)cc(F)c3)CCCCC2)cc1,"inconclusive: 50.1 µM [inhibitor, partial curve, poor fit]"
4,O=C(c1ccccc1F)N1CCC(N2CCCNC2=O)CC1,inactive
5,O=C(NCc1cccc(F)c1)C1CCCN(c2nccc(Nc3ccccc3F)n2)C1 (configuration not stated),active: 28.2 µM
6,COCCC1(N(C)C)CCN(C(=O)c2ccncc2)CC1,inactive
7,COc1ccc(-c2ccc3c(c2)C(=O)N2CC[C@H](NC(=O)CSC)C[C@H]2C(=O)N3)cc1,"inconclusive: 126 µM [inhibitor, single point]"
8,Cc1nc(C2(C)CCN(C(=O)c3cc(C)n(Cc4ccc(F)cc4)c3C)CC2)no1,"inconclusive: 31.6 µM [inhibitor, full curve, poor fit]"
9,CCOC(=O)[C@@H]1CN(C(=O)CC(C)(C)C)[C@H]2c3ccccc3O[C@@H]12,"inconclusive: 50.1 µM [inhibitor, partial curve, poor fit]"
10,Cc1nn(-c2ccccc2)c2c1C(C)N(C1CCN(C(=O)c3ccccc3Cl)CC1)C2=O (configuration not stated),"inconclusive: 50.1 µM [inhibitor, partial curve, poor fit]"
11,O=C(CCn1ccn2nc3c(c2c1=O)CCCC3)Nc1ccc(F)cc1,inactive
12,COC(=O)N1CCCC1C(=O)N1CCCC(c2nc3ncccc3[nH]2)C1 (configuration not stated),inactive
13,O=C(CCc1ccccc1)N1CCCC2(C1)Nc1cccnc1NC2=NC1CCCC1 (configuration not stated),"inconclusive: 50.1 µM [inhibitor, partial curve, poor fit]"
14,COc1ncccc1-c1cccc(COc2ccc3c(cnn3CC[S+](C)(=O)[O-])c2)c1,"inconclusive: 25.1 µM [inhibitor, full curve]"
15,COc1cc(CNC(=O)c2c(C)noc2-c2ccc(OC(F)(F)F)cc2)cc(OC)c1,"inconclusive: 50.1 µM [inhibitor, partial curve, poor fit]"
16,COc1ccc(CCNC(=O)c2nc3sccn3c2-c2ccc(C)cc2)cc1,active: 22.4 µM
17,Cc1nccn1CCCC(=O)N1CCC2(CCC(=O)N(CC3CCCO3)C2)CC1 (configuration not stated),inactive
18,Cc1cc(C(=O)N2CC(Oc3ccc(-c4nc(-c5ccccc5)no4)cc3)C2)n(C)n1,"inconclusive: 14.1 µM [inhibitor, full curve]"
19,Cc1ccc(N2CC(c3noc(C4(c5ccccc5)CC4)n3)CC2=O)cc1 (configuration not stated),"inconclusive: 56.2 µM [inhibitor, partial curve, poor fit]"
20,O=C(NCCN1CCOCC1)C1CCCN(c2ccnc3ccnn23)C1 (configuration not stated),inactive
21,O=C(c1ccco1)N1CC(Oc2ccccc2-c2nc(-c3ccccc3)no2)C1,active: 31.6 µM
22,CC1(C(=O)N2C[C@@H](COc3cccnc3)[C@H](c3ccccn3)C2)CC1,"inconclusive: 70.8 µM [inhibitor, partial curve, poor fit]"
23,CCOC(=O)c1sc(NC(=O)CC[C@H]2NC(=O)c3ccccc3NC2=O)nc1C,"inconclusive: 12.6 µM [inhibitor, partial curve, poor fit]"

row,Compound,Potency
1,CCOC(=O)C1(Cc2cccc(OC)c2)CCCNC1 (configuration not stated),inactive
2,CC1(CNc2ccccc2)COc2ccc(C(=O)NCc3ccc(F)cc3)cc2N1 (configuration not stated),active: 44.7 µM
3,CS(=O)(=O)N1CCC(CC(=O)NC2CCCCC2)C1 (configuration not stated),inactive
4,COc1ccc(-n2nc(C3CCCN(C(=O)c4ccc(C(F)(F)F)cc4)C3)[nH]c2=O)cc1 (configuration not stated),inactive
5,CCN(CC)Cc1ccc2c(c1)CN(C(=O)COCCOC)CCO2,inactive
6,COc1cc(CNc2nccc3c(=O)cc(N4CCOCC4)oc23)cc(OC)c1,active: 89.1 µM
7,Cc1ncccc1C(=O)N1CCCN(S(=O)(=O)c2ccccc2)CCC(=O)NCC1,"inconclusive: 44.7 µM [inhibitor, partial curve, poor fit]"
8,COc1ccccc1N1CCN(C(=O)c2c(OC)cc(=O)n3c2CCCC3)CC1,"inconclusive: 50.1 µM [inhibitor, partial curve, poor fit]"
9,CN(C)CCCOCC1(C)COc2ccc(C(=O)Nc3ccc(F)c(Cl)c3)cc2N1 (configuration not stated),active: 39.8 µM
10,O=C(c1cc2ccccc2[nH]1)N1CCC2(CC1)CN(c1ccncn1)CC2CO (configuration not stated),"inconclusive: 44.7 µM [inhibitor, partial curve, poor fit]"
11,O=C(NCc1ccc(F)c(F)c1)c1ccc2nc(-c3ccncc3)oc2c1,inactive
12,O=C(NCCC1CCCCC1)C1CCCN1C(=O)c1cccc(-c2ccccn2)c1 (configuration not stated),"inconclusive: 50.1 µM [inhibitor, partial curve, poor fit]"
13,C=CCNC(=O)Cn1nc2c(cc1=O)CCCCC2,inactive
14,COc1ccc(CCN2Cc3cc(NC(=O)Cc4ccccc4)ccc3OC(C)C2=O)cc1 (configuration not stated),"inconclusive: 50.1 µM [inhibitor, partial curve, poor fit]"
15,CN1CC(=O)N(C2CCCNCC2)Cc2c1ncnc2N1CCOCC1 (configuration not stated),"inconclusive: 44.7 µM [inhibitor, partial curve, poor fit]"
16,OCC1CN(c2ncccn2)CC12CCN(Cc1cccc3[nH]ccc13)CC2 (configuration not stated),"inconclusive: 70.8 µM [inhibitor, partial curve, poor fit]"
17,O=C1CCN(CC(O)C(F)(F)F)c2ccc(F)cc2CN1CC1CC1 (configuration not stated),"inconclusive: 31.6 µM [inhibitor, partial curve, poor fit]"
18,O=C(c1ccccc1)N1CCCC(C(=O)N2CCC(N3CCCC3=O)CC2)C1 (configuration not stated),inactive
19,COc1ccc(-c2ccc3ncc(Nc4ccc5c(c4)OCO5)n3n2)cn1,"inconclusive: 28.2 µM [inhibitor, partial curve, poor fit]"
20,O=C(NCc1ccnc2[nH]ccc12)c1ccc(C(F)(F)F)cc1,"inconclusive: 112 µM [inhibitor, partial curve, poor fit] and inconclusive: 79.4 µM [inhibitor, partial curve, poor fit]"
21,O=C(COc1ccccc1)Nc1ccc2ncnc(N3CCCCC3)c2c1,"inconclusive: 44.7 µM [inhibitor, partial curve, poor fit]"
